# In PubChem BioAssay AID651820 (National Center for Advancing Translational Sciences (NCATS), 2012):
# About 12,000 (3.5%) of roughly 340,000 compounds were called active. The shares of active, inactive and inconclusive entries below differ from those in the screen. Calls come from the whole dose curve; as a rule, active = well fitted inhibition curve with a large enough effect; inconclusive = small, poorly fitted or top-dose-only effect, or another doubt; inactive = no such curve, though single readings can be large or run the other way. No potency is given beside an inconclusive call; the fits are too rough.
# Assay: qHTS Assay for Inhibitors of Hepatitis C Virus (HCV)
# Details: Huh7.5.1 HCVcc-Cre (HCVcc is cell-culture hepatitis C virus) infection, luciferase reporter, 44 h; series mostly up to 41.8 µM
# Method in brief: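 Compounds are dispensed onto cells plated 4 h earlier at 1,000 per well, with HCVcc-Cre virus (about 0.5 moi) added next. Following 44 h of culture, luminescent signal is measured for 15 sec after 15 min with substrate at room temperature.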
# Potency is the fitted concentration of half-maximal effect; tags give direction and shape of the fitted curve.
row,Structure (SMILES),Potency
1,Cc1ccc2occ(/C=N/O)c(=O)c2c1,"inconclusive [inhibitor, single point]"
2,O=[N+]([O-])c1ccc(N/N=C2\CC3CC=CC23)c([N+](=O)[O-])c1 (configuration not stated),active: 11.2 µM
3,CCCN(CC(=O)Nc1ccccc1OC)C(=O)c1ccc2[nH]c3c(c2c1)CC(C)CC3 (configuration not stated),active: 7.94 µM
4,CN(C(=O)CSc1nc2ccccc2n1C)C1CCS(=O)(=O)C1 (configuration not stated),"inconclusive [inhibitor, single point]"
5,O=C(Nc1ccc2oc(-c3ccccc3F)nc2c1)c1ccco1,"inconclusive [inhibitor, partial curve]"
6,O=C1c2ccccc2C(=O)c2c1cccc2N1CCN(CCO)CC1,"inconclusive [inhibitor, single point]"
7,COC(=O)CCC(=O)N1CCOCCOCCN(C(=O)CCC(=O)OC)CCOCCOCC1,inactive
8,O=S(=O)(Nc1cccc(-c2ccc3nncn3n2)c1)c1cc(F)ccc1F,inactive
9,COCCNC(=O)C(Cc1c[nH]c2ccccc12)NC(=O)OCc1ccccc1 (configuration not stated),inactive
10,CNC(=S)N(Cc1cccs1)Cc1cc2ccc(OC)cc2[nH]c1=O,inactive
11,Cc1cc2nc(-c3ccc(SCC(=O)Nc4ccc(S(=O)(=O)N5CCCC5)cc4)nc3)[nH]c2cc1C,"inconclusive [inhibitor, partial curve]"
12,Cc1ccc(NC(=O)CN(C)CC(=O)Nc2sc3c(c2C(N)=O)CCC3)cc1,"inconclusive [inhibitor, partial curve]"
13,CCOc1ccc(S(=O)(=O)N2CCCCC2)cc1NC(=O)C1COc2ccccc2O1 (configuration not stated),active: 10 µM
14,Cc1csc(CN(C)C(=O)CC2C(=O)NCCN2Cc2ccc(-c3ccccc3)cc2)n1 (configuration not stated),inactive
15,O=C(NNC(=O)c1ccccc1OCc1ccccc1Cl)c1csc(N2CCOCC2)n1,active: 10 µM
16,O=C(NC(=S)Nc1ccccc1[N+](=O)[O-])c1ccccc1Cl,inactive
17,O=C(CCNC(=O)c1ccc(Br)o1)NC1CCCC1,"inconclusive [inhibitor, full curve, poor fit]"
18,Oc1sc(C=Nc2ccccc2)c2ccccc12,"inconclusive [inhibitor, single point]"
19,Cc1cccc(-c2noc(CN(C)C(=O)c3ccco3)n2)c1,inactive
20,COc1ccc(Nc2ncnc3nc[nH]c23)cc1OC,"inconclusive [inhibitor, single point]"
21,CCN(CC)c1ccc(S(=O)(=O)N2CCCCC2)cc1NC(=O)C1=COCCO1,"inconclusive [inhibitor, single point]"
22,CCN1CCc2c(sc(NC(=O)c3ccc(S(=O)(=O)N(CC)c4ccccc4)cc3)c2C(N)=O)C1,"inconclusive [inhibitor, single point]"
23,O=C(O)CNC(=O)CC1S/C(=N/N=C/c2ccccc2O)NC1=O (configuration not stated),inactive

row,Structure (SMILES),Potency
1,NC(=O)C1CCN(C(=O)c2ccc3nc(-c4ccccc4)c(-c4ccccc4)nc3c2)CC1,inactive
2,COc1ccccc1OCC(=O)c1[nH]c(C)c(C(C)=O)c1C,"inconclusive [inhibitor, full curve]"
3,COc1cccc(Nc2nnc(SCC(=O)N(CC(C)C)CC(C)C)s2)c1,"inconclusive [inhibitor, single point]"
4,O=C(NC1CCCc2ccccc21)c1cn2ccccc2n1 (configuration not stated),"inconclusive [inhibitor, partial curve]"
5,Oc1ccc(/C=N/N=C/c2ccc(O)cc2)cc1,inactive
6,O=C(Nc1ccc(-c2cn3c(n2)SCC3)cc1)c1ccc2c(c1)OCO2,"inconclusive [inhibitor, single point]"
7,CCOc1ccc(/C=C/C(=O)N(C)CC(=O)Nc2cccc(F)c2)cc1OCC,"inconclusive [inhibitor, partial curve]"
8,COc1cc(OC)c2c3c(c(C4CCCCC4)nc2c1)CCC3,inactive
9,O=S(=O)(Nc1ccccc1O)c1cccc2cccnc12,"inconclusive [inhibitor, single point]"
10,COc1cc(OC)c2ccc(=O)oc2c1C(CCN1CCN(c2ccccc2)CC1)c1ccc2c(c1)OCO2 (configuration not stated),"inconclusive [inhibitor, single point]"
11,Cc1ccc(OCC(=O)NC(=S)Nc2cccc(NC(=O)c3ccccc3Cl)c2)cc1,inactive
12,COc1ccc(C(=O)N(C)CCCC2CCCC2)cc1OC1CCN(C(C)C)CC1,"inconclusive [inhibitor, single point]"
13,Cc1cc2ccccn2c1C(C[N+](=O)[O-])c1c(F)cccc1Cl (configuration not stated),"inconclusive [inhibitor, single point]"
14,COc1ccc(OCC(=O)Nc2c(C(=O)N(CCN(C)C)Cc3ccco3)oc3ccccc23)cc1,"inconclusive [inhibitor, partial curve]"
15,CCCNC(=O)c1ccc2c(=O)n(Cc3ccco3)c(=S)[nH]c2c1,"inconclusive [inhibitor, single point]"
16,Cc1ccc2c(c1)CCCN2C(=O)c1ccco1,"inconclusive [inhibitor, partial curve]"
17,CCCOC(=O)c1cccc(NC(=O)COc2ccc([N+](=O)[O-])cc2)c1,"inconclusive [inhibitor, partial curve]"
18,S=C(NCc1ccc(Cl)cc1)Nc1ccccc1,inactive
19,CN(C)S(=O)(=O)c1ccc(C(=O)Nc2nc(-c3cc4ccccc4o3)cs2)cc1,"inconclusive [inhibitor, full curve]"
20,Cc1cc(C)cc(N2C(=O)NC(=O)/C(=C\C=C\c3ccco3)C2=O)c1,"inconclusive [inhibitor, single point]"
21,COc1cc(-c2nc(-c3ccncc3)no2)cc(OC)c1OC,"inconclusive [inhibitor, single point]"
22,CCCc1cc(=O)oc2cc(OC(C)C(=O)NC3CC(C)(C)NC(C)(C)C3)ccc12 (configuration not stated),"inconclusive [inhibitor, single point]"
23,O=C(Nc1ccc2c(c1)N(S(=O)(=O)c1cccs1)CCC2)c1c(F)cccc1Cl,active: 14.1 µM

row,Structure (SMILES),Potency
1,Cn1cccc1/C=N/NC(=O)c1cc(-c2cccs2)nc2ccccc12,"inconclusive [inhibitor, partial curve]"
2,COc1ccc(NC(=O)CN(C)C(=O)c2cc(-c3ccco3)nc3ccccc23)cc1,"inconclusive [inhibitor, partial curve]"
3,Cc1cc(Oc2ncccc2[N+](=O)[O-])c2cc(Cl)ccc2n1,"inconclusive [inhibitor, full curve]"
4,Cc1cccc(C(C)(C)C)c1OCCCCN1CCCC1,"inconclusive [inhibitor, partial curve]"
5,c1ccc([C@H]2CNCCN2CCc2cccc3ccccc23)cc1,"inconclusive [inhibitor, single point]"
6,S=c1nccc(-c2cccs2)[nH]1,inactive
7,COc1ccccc1N(C(=O)c1cncc(Br)c1)c1nc(-c2ccc(C)cc2)cs1,"inconclusive [inhibitor, single point]"
8,CCc1nnc(NC(=O)CSc2nc3c([nH]c4ccccc43)c(=O)n2CCOC)s1,"inconclusive [inhibitor, single point]"
9,CCCCN(C)CCCNC(=O)c1cn(CC)c2ccc(S(=O)(=O)N3CCc4ccccc4C3)cc2c1=O,"inconclusive [inhibitor, single point]"
10,O=C(Nc1cccnc1)c1cc2c(ccc3ccccc32)o1,"inconclusive [inhibitor, single point]"
11,C=CCn1c(SCc2c(C(=O)OC)sc(N)c2C(=O)OC)nnc1-c1ccc(Cl)cc1,"inconclusive [inhibitor, single point]"
12,COc1ccc(C(=O)C2CCCN(Cc3cccn3-c3ccccn3)C2)c(C)c1 (configuration not stated),"inconclusive [inhibitor, single point]"
13,CC(=O)O[C@@H]1[C@H](OC(=O)CC(C)C)c2c(ccc3ccc(=O)oc23)OC1(C)C,"inconclusive [inhibitor, full curve]"
14,O=C(Nc1ccc2c(c1)OCO2)c1ccc(Cl)c(S(=O)(=O)N2CCOCC2)c1,"inconclusive [inhibitor, single point]"
15,COc1ccc(OC)c(-c2csc(N(Cc3ccco3)C(=O)c3ccco3)n2)c1,"inconclusive [inhibitor, full curve, poor fit]"
16,O=C(NCc1ccc(OC(F)(F)F)cc1)C1CC(c2c(Cl)cccc2Cl)=NO1 (configuration not stated),"inconclusive [inhibitor, single point]"
17,C=CCc1cc(C)ccc1OCCOCCN1CCN(C)CC1,"inconclusive [inhibitor, single point]"
18,CN(CCc1ccccc1)C(=O)c1ccc(NC(=O)Cc2cccc(NC(=O)C3CCN(S(=O)(=O)c4cccc([N+](=O)[O-])c4)CC3)c2)cc1,"inconclusive [inhibitor, single point]"
19,Cc1cccc(CN2CCc3c([nH]c4ccccc34)C2CC(C)C)n1 (configuration not stated),"inconclusive [inhibitor, single point]"
20,COc1ccc(O)c(C(=O)c2cnc3c(c2)CN(C)C(=O)N3)c1,"inconclusive [inhibitor, single point]"
21,O=C(/C=C/c1ccc2c(c1)OCO2)Nc1ccc(Cl)cn1,"inconclusive [inhibitor, partial curve]"
